# According to PubChem BioAssay AID485313 (National Center for Advancing Translational Sciences (NCATS), 2010):
# About 7,600 (2.4%) of roughly 320,000 compounds were called active. This list was built around the results that the source calls inconclusive (neither active nor inactive); the mix of calls is not that of the screen. Calls come from the whole dose curve; as a rule, active = well fitted activation curve with a large enough effect; inconclusive = small, poorly fitted or top-dose-only effect; inactive = no such curve, though single readings can be large or run the other way. Potencies of inconclusive entries are left out as doubtful fits.
# Test: qHTS Assay for NPC1 Promoter Activators; note: nearly all actives have a fitted effect of over 60% in size;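 for activation: reporter is driven by a mutant NPC1 promoter; % of control where 0% means no effect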
# Conditions: Huh7 NPC1 promoter luciferase reporter, 24 h; series mostly up to 9.22 µM; activation: at the top concentration
# Outline: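 In 1536-well qHTS, Huh7 cells harboring an NPC1 promoter–luciferase construct received compound for 24 h; activation was quantified by luminescence following luciferase reagent addition.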
# Potency is the fitted concentration of half-maximal effect; tags give direction and shape of the fitted curve.
SMILES,activation,Potency
COc1cc(/C=C2/C(=O)NN(c3ccc(Cl)c(Cl)c3)C2=O)cc([N+](=O)[O-])c1O,inactive: -2.7%,
COc1ccc(C(=O)Nc2ccc3c4c(cccc24)CC3)cc1,,"inconclusive [activator, single point]"
COC(=O)c1cc(NC(=O)/C=C/c2ccccc2)ccc1O,,"inconclusive [activator, single point]"
CC(=O)Nc1ccc(NC(=O)C2CC(=O)N(c3ccccc3Cl)C2)cc1 (centres undefined),inactive: -3.81%,
Cc1ccc(CNC(=O)Nc2ccc(C)cc2)cc1,,"inconclusive [activator, partial curve]"
COC(=O)CCC(=O)COc1ccc(OC)cc1C#N,,"inconclusive [activator, partial curve]"
Cc1nc(-c2cccc(NC(=O)C(C)Oc3ccccc3)c2)cs1 (centres undefined),inactive: -4.48%,
Cc1nc(Nc2ccccc2)sc1C(=O)c1ccc(F)cc1,,"inconclusive [activator, partial curve]"
CCN(CC)c1ccc(/C=N/N2CCOCC2)c(O)c1,,"inconclusive [activator, single point]"
Cc1cccc(-n2c(C)cc(C=C(C#N)C#N)c2C)c1,inactive: -1.12%,
CC1Cc2nc(SCC(=O)Nc3ccc4c(c3)OCO4)n(Cc3ccccc3)c(=O)c2S1 (centres undefined),,"inconclusive [activator, single point]"
Cc1ccc(C(=O)CCC2CCCCC2=O)cc1 (centres undefined),,"inconclusive [activator, single point]"
CC1CCN(C(=O)C2CC(c3ccc(F)cc3)=NO2)CC1 (centres undefined),,"inconclusive [activator, single point]"
O=c1c2ccccc2oc2nc(-c3ccco3)n(-c3ccccc3)c(=O)c12,,"inconclusive [activator, partial curve]"
CCOC(=O)CSc1nc2cc3c(cc2cc1C#N)OCO3,,"inconclusive [activator, single point]"
CCOC(=O)c1c(C)[nH]c(C(=O)Nc2ccc(NC(C)=O)cc2)c1C,inactive: -0.0523%,
CC(C)CN1C(=O)c2ccc(C(=O)Nc3ccccn3)cc2C1=O,,"inconclusive [activator, partial curve]"
Cn1nnc(NC(=O)c2cccc([N+](=O)[O-])c2)n1,inactive: 8.25%,
CCn1c(SCC(=O)Nc2ccc(-c3nc4ccc(C)cc4s3)cc2)nnc1-c1ccccc1,,"inconclusive [activator, full curve]"
COc1ccc(S(=O)(=O)NCC2CC3C=CC2C3)cc1OC (centres undefined),inactive: -3.98%,
CCOC(=O)C1=C(C)NC(C)=C(C(=O)OCC)C1C(=O)OCC(=O)c1ccc2c(c1)OCCO2,inactive: 0.55%,
O=C(N/N=C/c1ccc2ccccc2c1)c1ccc(COc2ccc3c(c2)CCC3)o1,,"inconclusive [activator, partial curve]"
Cc1ccc(N=Nc2c(N)nn(-c3ccccc3)c2N)cc1,,"inconclusive [activator, single point]"
COc1ccc(Cl)cc1NC(=O)CN(C)C(=O)CCNC(=O)c1ccccc1OC,inactive: -0.481%,
Cc1ccc(S(=O)(=O)N2CCCCC2)cc1C(=O)N1CCCCCC1,inactive: -2.98%,

SMILES,activation,Potency
O=C(Nc1ccccc1)Nc1ccc(C(=O)N2CCOCC2)cc1,,"inconclusive [activator, single point]"
O=C(CSC1=NCCS1)Nc1ccc(F)cc1,inactive: -2.96%,
Cc1ccccc1OCC(=O)Nc1ccc2[nH]ncc2c1,,"inconclusive [activator, single point]"
O=C(Nc1ccccc1)c1ccc(-c2ccccc2)s1,,"inconclusive [activator, partial curve]"
O=C(c1cc(-c2cccc(O)c2)on1)N1CCCCC1,,"inconclusive [activator, single point]"
Oc1ccccc1CNc1ccc(Br)cn1,,"inconclusive [activator, single point]"
CCN(CC)c1ccc(/C=N/NC(=O)OC(C)(C)C)cc1,,"inconclusive [activator, partial curve]"
COC(=O)c1c(NC(=O)c2cccs2)sc2c1CCC(C)C2 (centres undefined),,"inconclusive [activator, single point]"
Cc1ccnc(NC(=O)c2sc3ccccc3c2Cl)c1,,active: 0.1 µM
COc1nc(-c2ccc(C)cc2)ccc1-c1noc(-c2ccco2)n1,,"inconclusive [activator, single point]"
CC1CCN(c2ccc(NC(=O)c3ccc([N+](=O)[O-])o3)cc2)CC1,,"inconclusive [activator, partial curve]"
CCCn1c(SCC(=O)N2CCCC2=O)nc2ccccc2c1=O,inactive: 0.065%,
COc1ccc(-c2coc3cc(OC)cc(OC)c3c2=O)cc1,,"inconclusive [activator, single point]"
CC(=O)c1c(C)[nH]c(C(=O)Nc2nc(-c3ccccc3)c(C)s2)c1C,,"inconclusive [activator, partial curve]"
O=C(c1ccccc1)c1cc2cc(Cl)ccc2[nH]1,,"inconclusive [activator, single point]"
COc1ccc2occ(C(=O)c3cccs3)c2c1,,"inconclusive [activator, single point]"
CS/C(Nc1cc(Cl)ccc1Cl)=C(/C#N)C(=O)c1ccco1,,"inconclusive [activator, partial curve]"
Cc1ccc(/C=N/Nc2ccc(C(=O)O)cc2)s1,,"inconclusive [activator, partial curve]"
O=C(CCN1C(=O)S/C(=C\c2ccc(F)cc2)C1=O)Nc1ccc(C(=O)O)c(O)c1,,"inconclusive [activator, single point]"
CCCCC(=O)Nc1ccc2c(c1)nc1n2CCSC1,,active: 3.55 µM
Cc1ccccc1Nc1nc(N)nc(CSc2nnc(C)n2C)n1,inactive: -0.424%,
Nc1c(-c2cccc([N+](=O)[O-])c2)nc2ccccn12,,"inconclusive [activator, single point]"
Cc1ccc(C(=O)O/N=C(\N)c2cccc([N+](=O)[O-])c2)cc1,,active: 3.55 µM
Cc1cc(Br)ccc1NC(=O)CN(C)C(=O)Cn1c(=O)cnc2ccccc21,inactive: 2.28%,
COCC1CCCN(C(=O)c2cc(COc3cncc(Cl)c3)on2)C1 (centres undefined),,"inconclusive [activator, single point]"

SMILES,activation,Potency
O=C(O)c1c(-c2ccc(Cl)cc2)cn2ccccc12,,"inconclusive [activator, single point]"
CCOC(=O)Cc1csc(NC(=O)Nc2cccs2)n1,,"inconclusive [activator, single point]"
COc1ccc(NC(=S)N/C(=N/CS(=O)(=O)c2ccccc2)c2ccccc2)cc1,,active: 2.82 µM
COC(=O)C(Cc1ccc(OC(=O)c2ccccc2C)cc1)N1Cc2ccccc2C1=O (centres undefined),,"inconclusive [activator, single point]"
Cc1cc(-c2ccc(C(C)C)c(S(=O)(=O)NCCN3CCC(C)CC3)c2)on1,inactive: 11.2%,
CN(C)C(=O)c1ccc2c(c1[N+](=O)[O-])C(=O)c1ccccc1C2=O,,"inconclusive [activator, partial curve]"
OCC1CCCN(C(=S)Nc2ccc(Nc3ccccc3)cc2)C1 (centres undefined),,"inconclusive [activator, partial curve]"
COc1ccc(-c2nnc3c4ccccc4c(C)nn23)cc1,,"inconclusive [activator, single point]"
c1ccc2c(c1)nnn1c3ccccc3nc21,,active: 1.12 µM
CC(C)(C)NC(=O)COc1ccc(-c2ccccc2)cc1,,"inconclusive [activator, partial curve]"
COc1ccc(C(=O)Nc2cc(C)c(NC(=O)c3ccccn3)cn2)cc1,,"inconclusive [activator, partial curve]"
CCCc1ccc(-c2cc(NC(=O)CSc3nnc(N)s3)n(-c3ccccc3)n2)cc1,,active: 2.51 µM
CC1CCCCN1C(=O)COC(=O)c1cc(Cl)c2c(c1)OCO2 (centres undefined),,"inconclusive [activator, partial curve]"
CCOC(=O)c1ccc2c(c1)nc(-c1ccccn1)n2CC,,"inconclusive [activator, single point]"
CC(C)c1ccc(/C=C/C(=O)O)cc1,inactive: -0.0432%,
Cc1cc(=O)n2[nH]c(-c3cccnc3)nc2n1,inactive: -3.86%,
CCc1ccc(NC(=O)Nc2ccc3c(c2)CCC3)cc1,,"inconclusive [activator, partial curve]"
CC(/C=N/NC(=O)Cc1cccs1)=C\c1ccccc1,,"inconclusive [activator, partial curve]"
c1ccc(-c2ccc(C3=Nn4c(Cn5nnc6ccccc65)nnc4SC3)cc2)cc1,inactive: 0.0267%,
O=C(NCc1cccs1)c1cc(-c2ccc(O)cc2)on1,,"inconclusive [activator, partial curve]"
CCC(=O)c1ccc(/C=C/c2nc3ccccc3n2C)o1,,active: 0.501 µM
CC(=O)Nc1ccc(Nc2cc(C)nc3c(-c4ccccc4)cnn23)cc1,,"inconclusive [activator, full curve]"
CNC(=O)CCc1nc(-c2ccc(C(C)(C)C)cc2)no1,,"inconclusive [activator, partial curve]"
Cn1cc(C(=O)N/N=C/c2cccs2)c2ccccc21,,"inconclusive [activator, partial curve]"
